The text below walks through data of patent EP1310557A1, “Design of bioactive peptides based on immunoglobulin structure” (priority 1990, dated 2003).

The test system of assay [1] is recombinant glycosylated gp120. Kind of assay: Immunization of rabbits: radiolabelled immunoprecipitation of gp120 by antisera. The format is in vivo, HIV. The conditions noted are these: radiolabelled immunoprecipitations.
Another assay relates to HIV. As to the kind of experiment: Infectivity assays with rabbit anti-peptide sera. The format is in vivo.

Turning to “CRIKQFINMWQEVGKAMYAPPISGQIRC [1005-45, cyclic peptide made from B138 by cysteine bond formation; cyclic 418-445 fragment]”, the “immunoprecipitation of recombinant glycosylated gp120 by rabbit antisera” value in assay [1] was “significant specificity”. Besides, the neutralizing antibodies elicited result in the assay on HIV was “could elicit neutralizing antibodies”.
